Measurements as given in PMC7819943, “Rice protein-binding microarrays: a tool to detect cis-acting elements near promoter regions in rice”.
The list shows a part of the results.

The sequences below were run against T1, OsWOX13 (Oryza sativa, UniProt Q5QMM3 1-267) (assay: protein-binding microarray (RPBM); PBS, 2% BSA, 51.3 ng/ul salmon testes DNA, 50 uM zinc acetate, 200 nM TF, 25 C, 1 h; high values mean tight binding). Conditions: protein: recombinant; tags: N-terminal polyhistidine and DsRed monomer fusion (pET32a); label: CyDye5-dUTP incorporated in the synthesized complementary strand; 3' TTTTT single-stranded linker to array surface; dsDNA, one strand shown.
T1 sequence: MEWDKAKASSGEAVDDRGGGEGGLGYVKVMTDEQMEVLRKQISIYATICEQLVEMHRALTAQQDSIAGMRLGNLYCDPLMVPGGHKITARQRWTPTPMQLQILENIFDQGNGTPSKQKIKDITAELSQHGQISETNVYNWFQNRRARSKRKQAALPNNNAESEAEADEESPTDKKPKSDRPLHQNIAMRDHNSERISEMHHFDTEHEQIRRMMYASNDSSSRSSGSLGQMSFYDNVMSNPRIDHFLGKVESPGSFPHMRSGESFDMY
How it was run: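 Ni–NTA purification followed expression in E. coli BL21-CodonPlus of transcription factors fused N-terminally to a polyhistidine tag and DsRed. At 200 nM in PBS with 2% BSA, salmon testes DNA and 50 µM zinc acetate, the protein was incubated for 1 h at 25 °C with a custom Agilent array that had been primer-extended with Cy5-dUTP and blocked with 2% BSA. After washing, the array was read on an Axon 4000B scanner. The binding signal is per-feature fluorescence intensity in arbitrary units.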

Sequence	binding signal
AATAAAATTAGAAACCATAAATTAGGGCCCTCTTCGACATCGGAGTCACCTAGTGCAG	12900 fluorescence intensity (a.u.)
GAAAGTGATTCGGATAATTTCCGACCGACCGGACCATTTTCGGAGTCACCTAGTGCAG	3370 fluorescence intensity (a.u.)
AACTAATGAATTGCTTTGAAAATGACCTGCATATAGGAAACGGAGTCACCTAGTGCAG	4500 fluorescence intensity (a.u.)
AATAATTGTATTGGGAGTAAATAAAATTGGATATAGTTGCCGGAGTCACCTAGTGCAG	19900 fluorescence intensity (a.u.)
TCGCTGATGAAAATGATGAGCATGGTGAGGGGAAGAAGGGCGGAGTCACCTAGTGCAG	8170 fluorescence intensity (a.u.)
TCCCGTCTCGCTTGATTGGTTTCTGACAAGAACGAGATTACGGAGTCACCTAGTGCAG	16500 fluorescence intensity (a.u.)
ACACCACATCAATCAAGCTAAACAAACACAACACATATCCCGGAGTCACCTAGTGCAG	23800 fluorescence intensity (a.u.)
AAGGTAATTAACTAACCGGGTTAATTTTATTCGTTAGATTCGGAGTCACCTAGTGCAG	28400 fluorescence intensity (a.u.)
AATTGATTATTCCTAACAACATTCCGCGGATTAATTTTCTCGGAGTCACCTAGTGCAG	15500 fluorescence intensity (a.u.)
GAATTATAATTATTTTGGAACGGAGATAGCAGTTAATTTGCGGAGTCACCTAGTGCAG	6240 fluorescence intensity (a.u.)
TGTAACAGATAAACTTCTTGGGCCAGGCCTTCGAGCACGCCGGAGTCACCTAGTGCAG	7360 fluorescence intensity (a.u.)
AGAATTAGTATTAATTATATTTAGTGGGAATAAATTTTGTCGGAGTCACCTAGTGCAG	15900 fluorescence intensity (a.u.)
GTTTATTGATTACGATTGCAAGCTCTATACAAGAAAGCAGCGGAGTCACCTAGTGCAG	42200 fluorescence intensity (a.u.)
AATAATTACTTAAATTTTGAATAAGACGAACGGTCAAACACGGAGTCACCTAGTGCAG	28300 fluorescence intensity (a.u.)
GGTATGATTAATCACACACACAAACGAGAAGTCCAATTCGCGGAGTCACCTAGTGCAG	34000 fluorescence intensity (a.u.)
GCATTGTTAACTTGATTACTCTGTCCGTTTCATATTGTACCGGAGTCACCTAGTGCAG	10600 fluorescence intensity (a.u.)
TTTGTTTTGCCCAGTTATCATGATTGTCAGTATCCGTTTCCGGAGTCACCTAGTGCAG	4880 fluorescence intensity (a.u.)
CCCAAACCAGATATTAGACATAATTTTCATAATCTCTACACGGAGTCACCTAGTGCAG	4010 fluorescence intensity (a.u.)
CCACTAACAGTCTAACAACATGATAAGGCCTCCGCAACCACGGAGTCACCTAGTGCAG	3920 fluorescence intensity (a.u.)
TAAATAGATGATAAGTAGAATTACTTATCATTGGTCTGTGCGGAGTCACCTAGTGCAG	9740 fluorescence intensity (a.u.)
TATAGTTACAATATAATTACAATACAATTATACTAGTGTTCGGAGTCACCTAGTGCAG	4550 fluorescence intensity (a.u.)

Sequence	binding signal
GAAGAAGATTGGGTTGCTAACACGTGGGTCTCACGCTGACCGGAGTCACCTAGTGCAG	6420 fluorescence intensity (a.u.)
CTTGAAATTTAAATTTGACTTGTAGCTTGAAGTAAATGTCCGGAGTCACCTAGTGCAG	30000 fluorescence intensity (a.u.)
AGGTGACTGTGGTGACTTTATCGATCTTAATATACATCGGCGGAGTCACCTAGTGCAG	4620 fluorescence intensity (a.u.)
TGTTTTAAAATTAATCATTTGAGCTATGAATCTAGTCATCCGGAGTCACCTAGTGCAG	3540 fluorescence intensity (a.u.)
GGCTTTAATTGGTTGATCTAGTAGCTTTTCCTGAACAAATCGGAGTCACCTAGTGCAG	27900 fluorescence intensity (a.u.)
TGCACCTGTTATTTTCCCGTTCTCTTGTTCTTTCCATTTGCGGAGTCACCTAGTGCAG	3490 fluorescence intensity (a.u.)
CTGATAGATATAGAATAGCGATTGTTTATATTTTAAAATGCGGAGTCACCTAGTGCAG	18000 fluorescence intensity (a.u.)
GAAAGATTTGATATACAGCACATACCAATAGTTCGGTATACGGAGTCACCTAGTGCAG	5020 fluorescence intensity (a.u.)
TGTGAATTGATCTTGATAACATCTGCTACACTGTAAATAACGGAGTCACCTAGTGCAG	6570 fluorescence intensity (a.u.)
ATTATACAGATTACGTGTAAATTGCGAGACGAATCTTTCACGGAGTCACCTAGTGCAG	7100 fluorescence intensity (a.u.)
CTGATTTTGATAGTTAAAGGGTGAACAATAGATCCTTTCTCGGAGTCACCTAGTGCAG	5690 fluorescence intensity (a.u.)
CAGGTGCTTTGGTTTGATTGCTACGTCGTCTTAATCTACACGGAGTCACCTAGTGCAG	4150 fluorescence intensity (a.u.)
TTGACAAAACTGAGATGGTTGTATGTGTTTTCTGCTAGGTCGGAGTCACCTAGTGCAG	3410 fluorescence intensity (a.u.)
CAGGTGCTCTAACTACTATGTAATTGAACCACTGACATGTCGGAGTCACCTAGTGCAG	5510 fluorescence intensity (a.u.)
CATGACCAAACTATCACAAAACTACAAATTTAACTAGGTTCGGAGTCACCTAGTGCAG	3370 fluorescence intensity (a.u.)
AAAATTAGTTAACGGTAATTATGCATACAACTTGCATTGTCGGAGTCACCTAGTGCAG	31700 fluorescence intensity (a.u.)
TAGGTTGATAATTATTTGAAGGCACCAACAAATGAGTTAGCGGAGTCACCTAGTGCAG	6350 fluorescence intensity (a.u.)
CCAAAATTGCATTCGTGAGTCGTGACCTGACCTGACCTGACGGAGTCACCTAGTGCAG	5260 fluorescence intensity (a.u.)
TAGATTTAATTACAACGAATGCAACAGTGCAATCAGATTGCGGAGTCACCTAGTGCAG	15400 fluorescence intensity (a.u.)
TGCAGAAGTTGTTTGATTGTCTATCAAACGTTGCCACGCCCGGAGTCACCTAGTGCAG	11000 fluorescence intensity (a.u.)
GATGATGATGATGATGATGATGAGAAGGTGGTGCCGCCGCCGGAGTCACCTAGTGCAG	27800 fluorescence intensity (a.u.)
